66 cell lines from the supplement of paper PMC4967469 can be followed below.

Lines with a small IC50 respond at low doses; fits outside the tested doses are given as limits. AUC sums up the same curve from the lowest dose to the 256-fold higher top dose; the more sensitive the line, the further below 1. Where only a bound is given, the exact number is not on record here.

The IC50 is the concentration that gives 50% inhibition.

Compound in this assay: FC(F)c1nc2ccccc2n1-c1nc(N2CCOCC2)nc(N2CCOCC2)n1 [ZSTK474]
Nature of the assay: Viability of human cancer cell lines after 72 h of drug (GDSC screen). As for the experimental part: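 Human cancer cell lines in 384-well plates, medium with 10% serum, drug for 72 h over a 256-fold dose range (nine 2-fold or five 4-fold steps up to the top dose). Adherent lines were fixed and stained with the nucleic acid dye Syto60, suspension lines read with resazurin; signal relative to control wells, capped at 0 and 100%. One two-parameter sigmoid per drug and line, fitted in a mixed model over all curves with the slope shared within a line.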

Turning to “EGI-1 (biliary tract, adherent, top dose 5.12 µM)”, the AUC was 0.729 and the IC50 is 1.78 µM.

For the cell line “EJM (lymphoid neoplasm, semi-adherent, top dose 5.12 µM)”, the AUC came to 0.707 and the IC50 came out at 1.1 µM.

Regarding “EKVX (lung adenocarcinoma, adherent, top dose 5.12 µM)”, the AUC turned out to be 0.847 and the IC50 is above 5.12 µM.

As to “EM-2 (chronic myeloid leukaemia, suspension, top dose 5.12 µM)”, the AUC came out at 0.835 and the IC50 is 4 µM.

In the case of “EMC-BAC-1 (lung adenocarcinoma, adherent, top dose 5.12 µM)”, the AUC came to 0.813 and the concentration for half-maximal inhibition (IC50) is 3.27 µM.

Consider “EMC-BAC-2 (lung adenocarcinoma, adherent, top dose 5.12 µM)”, for which the AUC worked out at 0.759 and the IC50 was 2.1 µM.

On to “EN (endometrium, adherent, top dose 5.12 µM)”, for which the AUC is 0.799 and the concentration for half-maximal inhibition (IC50) came out at 3.25 µM.

Take “EPLC-272H (lung squamous cell carcinoma, adherent, top dose 5.12 µM)”: the AUC worked out at 0.626 and the concentration for half-maximal inhibition (IC50) was found to be 0.748 µM.

Turning to “ES1 (Ewing sarcoma, adherent, top dose 5.12 µM)”, the AUC was 0.54 and the half-maximal inhibitory concentration (IC50) was 0.411 µM.

With “ES3 (Ewing sarcoma, adherent, top dose 5.12 µM)”, the AUC was determined as 0.705 and the half-maximal inhibitory concentration (IC50) was 1.25 µM.

Take “ES4 (Ewing sarcoma, adherent, top dose 5.12 µM)”: the AUC was 0.524 and the concentration for half-maximal inhibition (IC50) was determined as 0.376 µM.

Consider “ES5 (Ewing sarcoma, adherent, top dose 5.12 µM)”, for which the AUC is 0.381 and the IC50 was found to be 0.143 µM.

“ES6 (Ewing sarcoma, adherent, top dose 5.12 µM)”: the AUC was found to be 0.533 and the IC50 is 0.403 µM.

As for “ES7 (Ewing sarcoma, adherent, top dose 5.12 µM)”, the AUC was 0.268 and the IC50 worked out at 0.0682 µM.

Consider “ES8 (Ewing sarcoma, adherent, top dose 5.12 µM)”, for which the AUC was 0.604 and the concentration for half-maximal inhibition (IC50) stood at 0.602 µM.

Consider “ES-2 (ovary, adherent, top dose 5.12 µM)”, for which the AUC was found to be 0.961 and the concentration for half-maximal inhibition (IC50) is above 5.12 µM.

For the cell line “ESO26 (oesophagus, adherent, top dose 5.12 µM)”, the AUC was found to be 0.76 and the IC50 stood at 1.71 µM.

As to “ESO51 (oesophagus, semi-adherent, top dose 5.12 µM)”, the AUC is 0.76 and the IC50 was determined as 2.54 µM.

Regarding “ESS-1 (endometrium, adherent, top dose 5.12 µM)”, the AUC is 0.914 and the IC50 is above 5.12 µM.

Consider “ETK-1 (biliary tract, adherent, top dose 5.12 µM)”, for which the AUC stood at 0.809 and the half-maximal inhibitory concentration (IC50) worked out at 3.12 µM.

In the case of “EVSA-T (breast, adherent, top dose 5.12 µM)”, the AUC was determined as 0.592 and the IC50 came out at 0.549 µM.

Consider “EW-1 (Ewing sarcoma, semi-adherent, top dose 5.12 µM)”, for which the AUC is 0.368 and the half-maximal inhibitory concentration (IC50) worked out at 0.143 µM.

For the cell line “EW-3 (Ewing sarcoma, adherent, top dose 5.12 µM)”, the AUC worked out at 0.7 and the IC50 is 1.28 µM.

As to “EW-7 (Ewing sarcoma, semi-adherent, top dose 5.12 µM)”, the AUC is 0.527 and the half-maximal inhibitory concentration (IC50) amounted to 0.376 µM.

For the cell line “EW-11 (Ewing sarcoma, adherent, top dose 5.12 µM)”, the AUC turned out to be 0.435 and the IC50 is 0.202 µM.

Consider “EW-13 (Ewing sarcoma, suspension, top dose 5.12 µM)”, for which the AUC is 0.596 and the half-inhibitory concentration (IC50) is 0.604 µM.

In the case of “EW-16 (Ewing sarcoma, adherent, top dose 5.12 µM)”, the AUC is 0.669 and the IC50 was determined as 0.969 µM.

Consider “EW-18 (Ewing sarcoma, suspension, top dose 5.12 µM)”, for which the AUC was determined as 0.438 and the IC50 came out at 0.214 µM.

Consider “EW-24 (Ewing sarcoma, semi-adherent, top dose 5.12 µM)”, for which the AUC worked out at 0.993 and the concentration for half-maximal inhibition (IC50) was above 5.12 µM.

On to “EoL-1-cell (haematopoietic neoplasm, suspension, top dose 5.12 µM)”, for which the AUC turned out to be 0.883 and the half-inhibitory concentration (IC50) turned out to be 4.37 µM.

With “FADU (head and neck, adherent, top dose 5.12 µM)”, the AUC amounted to 0.935 and the IC50 was above 5.12 µM.

As for “FLO-1 (oesophagus, adherent, top dose 5.12 µM)”, the AUC was 0.72 and the IC50 worked out at 1.81 µM.

Regarding “FTC-133 (thyroid, adherent, top dose 5.12 µM)”, the AUC is 0.983 and the IC50 is above 5.12 µM.

Regarding “FU97 (stomach, adherent, top dose 5.12 µM)”, the AUC worked out at 0.71 and the IC50 was 1.28 µM.

For the cell line “FU-OV-1 (ovary, adherent, top dose 5.12 µM)”, the AUC is 0.528 and the IC50 stood at 0.39 µM.

As to “Farage (B-cell lymphoma, suspension, top dose 5.12 µM)”, the AUC turned out to be 0.219 and the IC50 amounted to 0.0589 µM.

On to “G-292 Clone A141B1 (osteosarcoma, adherent, top dose 5.12 µM)”, for which the AUC was 0.662 and the IC50 was found to be 1.19 µM.

For “G-361 (melanoma, adherent, top dose 5.12 µM)”, the AUC stood at 0.752 and the IC50 turned out to be 1.64 µM.

Turning to “G-401 (kidney, adherent, top dose 5.12 µM)”, the AUC worked out at 0.668 and the IC50 worked out at 0.99 µM.

On to “G-402 (soft tissue, adherent, top dose 5.12 µM)”, for which the AUC came to 0.916 and the IC50 was above 5.12 µM.

Regarding “G-MEL (melanoma, adherent, top dose 5.12 µM)”, the AUC stood at 0.835 and the IC50 worked out at 3.31 µM.

Consider “GAK (melanoma, adherent, top dose 5.12 µM)”, for which the AUC was found to be 0.93 and the IC50 was above 5.12 µM.

With “GAMG (glioma, adherent, top dose 5.12 µM)”, the AUC stood at 0.632 and the IC50 came out at 0.756 µM.

On to “GB-1 (glioma, adherent, top dose 5.12 µM)”, for which the AUC amounted to 0.707 and the IC50 is 1.38 µM.

As to “GCIY (stomach, adherent, top dose 5.12 µM)”, the AUC is 0.97 and the IC50 was above 5.12 µM.

In the case of “GCT (soft tissue, adherent, top dose 5.12 µM)”, the AUC came to 0.989 and the half-maximal inhibitory concentration (IC50) is above 5.12 µM.

For “GDM-1 (acute myeloid leukaemia, suspension, top dose 5.12 µM)”, the AUC worked out at 0.253 and the IC50 came out at 0.0648 µM.

Turning to “GI-1 (glioma, adherent, top dose 5.12 µM)”, the AUC turned out to be 0.719 and the half-inhibitory concentration (IC50) was 1.3 µM.

As for “GI-ME-N (neuroblastoma, adherent, top dose 5.12 µM)”, the AUC stood at 0.74 and the 50% inhibitory concentration (IC50) was determined as 2.03 µM.

For “GMS-10 (glioma, adherent, top dose 5.12 µM)”, the AUC was 0.98 and the IC50 was above 5.12 µM.

Turning to “GOTO (neuroblastoma, adherent, top dose 5.12 µM)”, the AUC came to 0.93 and the 50% inhibitory concentration (IC50) was above 5.12 µM.

As for “GP5d (large intestine, adherent, top dose 5.12 µM)”, the AUC worked out at 0.883 and the half-inhibitory concentration (IC50) is 4.5 µM.

On to “GR-ST (lymphoblastic leukaemia, suspension, top dose 5.12 µM)”, for which the AUC is 0.582 and the IC50 came to 0.563 µM.

Take “GRANTA-519 (B-cell lymphoma, suspension, top dose 5.12 µM)”: the AUC was 0.6 and the half-inhibitory concentration (IC50) was found to be 0.582 µM.

Take “GT3TKB (stomach, adherent, top dose 5.12 µM)”: the AUC stood at 0.977 and the concentration for half-maximal inhibition (IC50) was above 5.12 µM.

Take H4 (glioma, adherent, top dose 5.12 µM): the AUC amounted to 0.877 and the IC50 stood at 5.04 µM.

“H9 (lymphoid neoplasm, suspension, top dose 5.12 µM)”: the AUC was 0.992 and the concentration for half-maximal inhibition (IC50) is above 5.12 µM.

In the case of “H290 (mesothelioma, adherent, top dose 5.12 µM)”, the AUC was found to be 0.892 and the half-maximal inhibitory concentration (IC50) was found to be 5.12 µM.

For “H513 (mesothelioma, semi-adherent, top dose 5.12 µM)”, the AUC was 0.834 and the half-maximal inhibitory concentration (IC50) came out at 4.42 µM.

For “H2369 (mesothelioma, adherent, top dose 5.12 µM)”, the AUC is 0.969 and the IC50 is above 5.12 µM.

In the case of “H2373 (mesothelioma, adherent, top dose 5.12 µM)”, the AUC worked out at 0.973 and the IC50 is above 5.12 µM.

In the case of “H2461 (mesothelioma, adherent, top dose 5.12 µM)”, the AUC amounted to 0.957 and the IC50 is above 5.12 µM.

On to “H2591 (mesothelioma, adherent, top dose 5.12 µM)”, for which the AUC turned out to be 0.916 and the IC50 was above 5.12 µM.

For “H2595 (mesothelioma, adherent, top dose 5.12 µM)”, the AUC was determined as 0.944 and the concentration for half-maximal inhibition (IC50) is above 5.12 µM.

Turning to “H2722 (mesothelioma, adherent, top dose 5.12 µM)”, the AUC stood at 0.944 and the half-inhibitory concentration (IC50) is above 5.12 µM.

On to “H2731 (mesothelioma, adherent, top dose 5.12 µM)”, for which the AUC stood at 0.492 and the IC50 is 0.303 µM.
